# Laboratory results taken from the supplement of paper PMC11417369.
# ± gives the standard deviation of the averaged measurements. The list shows a part of the results.
# Test system: PfAP2-LT AP2 domain (GST-tagged)
# Experiment: gcPBM binding intensity (ln(normalized median fluorescence intensity)); higher = stronger DNA binding
# How it was run: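 Probes on an Agilent 4 × 180k array were primer-extended, double-stranded and 36 bp long, taken from intergenic genomic regions, with negative controls added. GST-tagged P. falciparum DNA-binding domains from E. coli, about 25 μg on average, were applied to the array for 1 h in 1× PBS containing 1% milk, 0.2 mg/ml BSA, 0.5% salmon testes DNA and 0.03% Triton X-100. Binding intensity, obtained after Alexa488 anti-GST antibody detection and a 488 nm scan, is the highest Masliner-normalised natural-log median intensity across replicate spots of either probe orientation.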
row,Sequence,gcPBM binding intensity (ln)
1,AAATATAATAACGAACGTACTTATTATAATTTGTAA [XGTACX_site2342],8.68 ± 0.41
2,TTATTTTTTTTATATATATGTATAAATATATATATA [XGTACX_negctrl_site441],8.53 ± 0.44
3,TTTTGTTTTAATTTTATTTGATTTTATTTGATTTAT [CACACA_negctrl_site692],8.68 ± 0.49
4,ATATAACATATCAATTGTACGTATTGATAATATATA [XGTACX_site2504],8.78 ± 0.35
5,ATATTTATATGGTTTGCACACATAACAACTATGGTT [CACACA_site3631],9.33 ± 0.38
6,AGGCACACAAACATATGTACACATATATATATATAT [XGTACX_site4723],10.21 ± 0.078
7,TTTATTGAACGTACACATATATATATGTATATATTT [TGCATGCA_negctrl_site141],8.97 ± 0.38
8,CAAAAGGATATGCACACACACACACGGATATTTATA [CACACA_site7099],10 ± 0.28
9,TTTTGTTATTAGAGGGTGCTTATAATGAACTCCTAC,8.65 ± 0.49
10,ATTACATTAATAAGAGTGCATTATATAAGTTTTATG,8.52 ± 0.45
11,AAAAAAAAAAATCCAGTGCATATATTTTTTACATAT,8.64 ± 0.45
12,TCAATCATCTTATATAGTACACATAAAAGTATTATA [XGTACX_site8513],8.48 ± 0.33
13,GACAAAATGATAGGGACACACAATATCAATGTTTAA [CACACA_site765],9.05 ± 0.55
14,CCACTAATAAATATTACACACATATAGATTTATATT [CACACA_site7465],9.01 ± 0.31
15,AAAAAAAAAAATTACACACATACATATAATAATAAT [CACACA_site2193],9.06 ± 0.4
16,CGTATATATATATACACACACATATATATATGTAAA [CACACA_site195],9.3 ± 0.3
17,TATTTCCATTCATAATTTTGTAGAATATATAACCGT [CACACA_negctrl_site1531],8.55 ± 0.49
18,AAAAACTTAATATTCACACATATATATATATATATA [CACACA_site5240],9.71 ± 0.15
19,TACGTTCTAATATATACACACCTGGTATTAATTATG [CACACA_site5260],9.04 ± 0.42

row,Sequence,gcPBM binding intensity (ln)
1,AAATATTATTTATTTACACACCAATCTTCTTTTCTT [CACACA_site3990],8.95 ± 0.5
2,GAAAAATTTTTATATGTGCACATGTTATATATAATT [GTGCAC_site9742],8.9 ± 0.3
3,TTTTATTATTAATTTCTTTTTTCTCATCACTTTCAA [XGTACX_negctrl_site117],8.51 ± 0.65
4,TTTACAAAAAATTATACACACACGTACATATAAATA [CACACA_site945],9.12 ± 0.33
5,ATATATATAAAATATACACACATACTGTTCATTTAA [CACACA_site6149],8.98 ± 0.4
6,TAATTTATGAGTAATACACACACTTGTGGATATATT [CACACA_site3790],8.98 ± 0.37
7,AAATAAAAAAAGAAACGTACATATATTGGTTTCGTC [XGTACX_site3510],8.79 ± 0.4
8,TAATGTAAAATTTAGAGTACATAAAAAATTGGATGA [XGTACX_site7225],8.69 ± 0.4
9,AAACTATAATATATTACACACATATATTTTATAAGT [CACACA_site6460],9.02 ± 0.3
10,AATTGAATTTTAAAAGAAAAAAAAAAAAAAAAATAA [XGTACX_negctrl_site195],8.12 ± 0.57
11,GGAATAGTAATATATACACACAAATACAGATATATA [CACACA_site4213],9.3 ± 0.45
12,TGGAGGTCAGTTCACAGTACCCAGAAACTCTACGGA [XGTACX_site4927],8.57 ± 0.35
13,CATACAGATATATATACACACATACAGATAAATACA [CACACA_site4592],9.3 ± 0.28
14,AAAAAAATAAGTATTGAACAATTAAGGAAAAACATG [GTGCAC_negctrl_site464],8.77 ± 0.47
15,CTTATAAAAAAAAAAACATGCAACAGTAAAGAACAA [TGCATGCA_site892],8.88 ± 0.41
16,AACATACATAAACACACACACACACCCACAGAGACA [CACACA_site4430],10.29 ± 0.035
17,GGTAATTTTTTTTAAATACACACTGAAATGTGAATT [CACACA_site564],8.56 ± 0.49
18,CTTGTCATTGGGCACACACACATGTATAGGTTATTA [CACACA_site3058],9.36 ± 0.3
19,TGAACACCCACAAATACACACAAAAAAAATAAATAA [CACACA_site248],9.28 ± 0.51

row,Sequence,gcPBM binding intensity (ln)
1,ATTTTTTTTCATATAACACACACACTAATATAATGT [CACACA_site9226],9.45 ± 0.43
2,GAGTAAACATATATATGTACATAAAGTTAACATTGC [XGTACX_site2225],9.11 ± 0.41
3,ATATATTATATAATATGTACATAATAAAATTTAAAT [XGTACX_site1900],8.85 ± 0.42
4,TTTTTATTTATATATATATATATATATTATATATAA [CACACA_negctrl_site1654],8.77 ± 0.31
5,ATCTAAATAATATATATATATAATATTAATAATATA [CACACA_negctrl_site1620],8.44 ± 0.49
6,ACAAGATCTAGATACACACACATATCTCTCAATCTA [CACACA_site6453],9.36 ± 0.36
7,GTAAAAAAATAGCACACACACAAAAACACGCACAAA [CACACA_site6723],10.1 ± 0.23
8,GGGACAGGACGAAAAAATAAATAAATAAATAAAAAA [CACACA_negctrl_site155],8.65 ± 0.71
9,AATAATTGAAAAACACAAAAATGATTTTCCATAAAT [CACACA_negctrl_site1555],8.46 ± 0.54
10,AATAAATAAATATATACACACATATCTGTCTACATA [CACACA_site5708],9.01 ± 0.37
11,TTAAGATATGTATATCGTACATGACATTAAAAATTT [XGTACX_site3352],8.52 ± 0.41
12,AATGGTATAATCAATACACACATAATATATATATTG [CACACA_site1658],8.95 ± 0.39
13,AAATAAATACACATATGTACATATTTTATTTTATTT [XGTACX_site2357],8.76 ± 0.45
14,TAAAAAAAATACAAAAGTACACAAAATTATACGTTA [XGTACX_site4656],8.77 ± 0.49
15,TTGTTAAAAGTATCCATTCTTTATTACTTTTGTTTA [XGTACX_negctrl_site532],8.59 ± 0.57
16,TCGTAAACATATTGAAAAATATAAAAAGGGGTAATA [CACACA_negctrl_site619],8.71 ± 0.56
17,ATTGGGTACAAATACACACACATATATATATTAATA [CACACA_site2376],9.47 ± 0.41
18,TGTACCTTATTAATATATTTAACTCGCCTTATATAC [XGTACX_negctrl_site289],8.96 ± 0.36
